The antibiotic and cytotoxicity screens of Wong et al. (2023)
The list shows a part of the results.

Tests used:
HSkMC = human skeletal muscle cells; experiment: cytotoxicity call (relative viability < 0.9); settings: 10 µM
S. aureus RN4220 = experiment: growth inhibition call (relative growth <= 0.2); settings: 50 µM

SMILES | cytotoxicity call (HSkMC) | growth inhibition call (S. aureus RN4220)
C[C@H](CO)N1C[C@H](C)[C@@H](CN(C)C(=O)Nc2cccc3ccccc23)Oc2ccc(NC(=O)Nc3ccc(C(F)(F)F)cc3)cc2C1=O | inactive | inactive
C[C@H]1CN([C@@H](C)CO)C(=O)c2cc(NC(=O)Nc3ccccc3)ccc2O[C@H]1CN(C)C(=O)Nc1cccc2ccccc12 | inactive | inactive
COc1ccc(NC(=O)Nc2ccc3c(c2)C(=O)N([C@@H](C)CO)C[C@@H](C)[C@@H](CN(C)C(=O)Cc2ccccc2)OCCCC[C@H](C)O3)cc1 | inactive | inactive
C[C@@H]1CCCCO[C@H](CN(C)CC2CCCCC2)[C@H](C)CN([C@@H](C)CO)C(=O)c2cc(NC(=O)c3ccncc3)ccc2O1 | inactive | inactive
C[C@H](CO)N1C[C@H](C)[C@@H](CN(C)Cc2ccc(C(F)(F)F)cc2)Oc2c(NS(=O)(=O)c3ccc(Cl)cc3)cccc2C1=O | inactive | inactive
Cc1n[nH]c(NCc2ccco2)nc1=O | inactive | inactive
CO[C@@H]1CN(C)C(=O)c2ccc(NC(=O)Nc3cccc(F)c3)cc2OC[C@@H](C)N(C(=O)Nc2cccc(F)c2)C[C@H]1C | inactive | inactive
O=C1N[C@@H]2[C@@H]1[C@H]1C=C[C@H]2C1 | inactive | inactive
C[C@@H]1CN([C@@H](C)CO)C(=O)Cc2cc(NC(=O)Nc3ccc(C(F)(F)F)cc3)ccc2O[C@H]1CN(C)Cc1ccncc1 | inactive | inactive
COc1ccccc1C(=O)Nc1ccc2c(c1)C(=O)N(C)[C@@H]1CC[C@@H](CC(=O)NCCc3ccncc3)O[C@H]1CO2 | inactive | inactive
C[C@@H]1CCCCO[C@@H](CN(C)S(=O)(=O)c2ccc(F)cc2)[C@H](C)CN([C@@H](C)CO)C(=O)c2cc(NC(=O)Nc3ccc(C(F)(F)F)cc3)ccc2O1 | inactive | inactive
COCC(=O)N(C)C[C@@H]1Oc2cc(C#C[C@H](C)O)ccc2S(=O)(=O)N([C@@H](C)CO)C[C@@H]1C | inactive | inactive
C[C@@H]1CN([C@H](C)CO)C(=O)c2cc(NC(=O)c3ccncc3)ccc2O[C@@H](C)CCCCO[C@H]1CN(C)C(=O)Nc1cccc2ccccc12 | active | inactive
Cc1ccc(S(=O)(=O)N[C@@H](Cc2ccccc2)C(=O)NCCCn2cc(CCC(=O)NO)nn2)cc1 | inactive | inactive
CC(C)c1c(O)ccc2c1CCC1C(C)(C)CCCC21C (centres undefined) | inactive | inactive
C[C@@H]1CN([C@H](C)CO)C(=O)Cc2cc(NC(=O)Cc3cn(C)c4ccccc34)ccc2O[C@@H]1CN(C)CC1CCCCC1 | inactive | inactive
COc1ccccc1-c1ccc2c(c1)O[C@@H](CN(C)C(=O)c1ccncc1)[C@@H](C)CN([C@@H](C)CO)S2(=O)=O | inactive | inactive
C[C@@H]1CCCCO[C@H](CN(C)CC2CCCCC2)[C@@H](C)CN([C@H](C)CO)C(=O)c2cc(NS(=O)(=O)c3ccc(F)cc3)ccc2O1 | inactive | inactive
O=C(O)CN1CCOC1=O | inactive | inactive
C[C@@H]1CCCCO[C@@H](CN(C)Cc2ccc(C(=O)O)cc2)[C@@H](C)CN([C@@H](C)CO)C(=O)c2cc(NS(=O)(=O)c3ccc(F)cc3)ccc2O1 | inactive | inactive
COc1ccc(NC(=O)N(C)C[C@H]2OCCCC[C@H](C)Oc3ccc(NS(=O)(=O)c4ccc(OC)cc4)cc3C(=O)N([C@@H](C)CO)C[C@H]2C)cc1 | inactive | inactive
CO[C@@H]1CN(C)C(=O)c2cc(NC(=O)NC(C)C)ccc2OC[C@@H](C)N(Cc2ccc(-c3ccccn3)cc2)C[C@H]1C | inactive | inactive
COc1ccc(S(=O)(=O)Nc2cccc3c2O[C@H](CN(C)C(=O)Nc2c(C)noc2C)[C@H](C)CN([C@H](C)CO)C3=O)cc1 | inactive | inactive
CC(C)NC(=O)N(C)C[C@@H]1OCCCC[C@@H](C)Oc2ccc(NC(=O)Nc3ccccc3)cc2C(=O)N([C@H](C)CO)C[C@@H]1C | inactive | inactive
C[C@H](O)C#Cc1ccc2c(c1)O[C@H](CN(C)C(=O)c1ccncc1)[C@@H](C)CN([C@@H](C)CO)S2(=O)=O | inactive | inactive
CCS(=O)(=O)NCC[C@@H]1CC[C@@H](NC(=O)Cc2ccccn2)[C@@H](CO)O1 | inactive | inactive
C[C@@H]1CN([C@H](C)CO)C(=O)c2cc(NS(=O)(=O)c3ccc(F)cc3)ccc2O[C@@H](C)CCCCO[C@H]1CN(C)S(=O)(=O)c1ccc(Cl)cc1 | inactive | inactive
